Columns and labels:
[1] = target: T1, human CD98hc endogenously expressed on HCMEC/D3 cells (human); assay: FACS
T1 construct: human brain endothelial cell line
T1 chain: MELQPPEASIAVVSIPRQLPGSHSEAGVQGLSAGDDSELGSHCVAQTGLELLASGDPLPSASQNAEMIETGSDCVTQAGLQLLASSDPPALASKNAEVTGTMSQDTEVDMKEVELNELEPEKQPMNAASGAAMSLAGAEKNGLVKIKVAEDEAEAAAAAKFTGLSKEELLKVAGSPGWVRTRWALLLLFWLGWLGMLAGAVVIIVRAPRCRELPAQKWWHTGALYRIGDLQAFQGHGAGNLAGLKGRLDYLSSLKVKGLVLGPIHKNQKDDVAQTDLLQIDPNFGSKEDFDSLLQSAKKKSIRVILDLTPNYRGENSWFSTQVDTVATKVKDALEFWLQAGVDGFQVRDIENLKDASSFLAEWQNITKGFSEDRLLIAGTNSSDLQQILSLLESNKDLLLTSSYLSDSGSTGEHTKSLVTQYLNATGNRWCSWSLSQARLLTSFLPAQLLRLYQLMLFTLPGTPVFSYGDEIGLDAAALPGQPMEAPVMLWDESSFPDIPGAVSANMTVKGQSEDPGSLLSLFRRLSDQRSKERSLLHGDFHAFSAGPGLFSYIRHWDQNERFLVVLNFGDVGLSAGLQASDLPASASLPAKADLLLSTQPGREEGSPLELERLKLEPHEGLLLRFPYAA

[2] = target: T2, Full length human CD98hc on CHO cells (human); assay: FACS
T2 construct: CHO cells stably overexpressing it; also called CHO-human CD98hc; CHO-huCD98hc
T2 chain: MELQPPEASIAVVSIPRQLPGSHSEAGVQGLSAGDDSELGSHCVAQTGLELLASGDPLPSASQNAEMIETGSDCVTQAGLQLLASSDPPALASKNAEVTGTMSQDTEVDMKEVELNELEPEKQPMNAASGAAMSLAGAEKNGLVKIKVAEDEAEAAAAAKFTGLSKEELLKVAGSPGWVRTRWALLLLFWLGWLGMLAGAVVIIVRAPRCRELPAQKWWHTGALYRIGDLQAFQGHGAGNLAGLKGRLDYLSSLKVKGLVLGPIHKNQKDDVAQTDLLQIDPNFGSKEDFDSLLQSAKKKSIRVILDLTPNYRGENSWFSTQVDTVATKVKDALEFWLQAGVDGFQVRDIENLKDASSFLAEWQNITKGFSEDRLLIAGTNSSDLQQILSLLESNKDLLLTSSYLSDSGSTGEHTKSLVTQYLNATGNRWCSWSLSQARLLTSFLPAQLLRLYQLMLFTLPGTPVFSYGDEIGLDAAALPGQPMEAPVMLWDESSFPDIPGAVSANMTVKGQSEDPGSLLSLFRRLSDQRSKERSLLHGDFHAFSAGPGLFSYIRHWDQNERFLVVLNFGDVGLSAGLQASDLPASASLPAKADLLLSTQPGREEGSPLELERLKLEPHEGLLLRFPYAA

Binder | MFI ratio HCMEC/2nd ab only [1] | MFI ratio CHO huCD98/CHO parental [2]
CD98hc.05.052 (2+1 bispecific antibody) (bispecific antibody) heavy 1: EVRLLESGGGLVQPGGSLRLSCAASGFTFSNYAMGWVRQAPGKGLEWVSAISGSGGSTYYADSVKGRFTTSRDDSKNALYLQMNSLRAEDTAVYYCARGGPGWYAADVWGQGTTVTVSSASTKGPSVFPLAPSSKSTSGGTAALGCLVKDYFPEPVTVSWNSGALTSGVHTFPAVLQSSGLYSLSSVVTVPSSSLGTQTYICNVNHKPSNTKVDKKV[here human IgG1 Fc with changes without letters]GGGGSGGGGSGGGGSDMQLQESGPGLVKPSQSLSLTCTVTGYSITSDYAWNWIRQFPGNKLEWMGFISYSGTTSYTPSLKRRISITRDTSKNQFFLRLNSVTPEDTATYYCAKSAFYGNVWFAYWGQGTLVTVSSGGSEGKSSGSGSESKSTGGSQFVLTQSPAIMSASPGEKVTISCSASSSVSYMFWYQQKPGSSPKPWISHTSNLASGVPARFSGSGSGTSYSLTISNMEAEDAATYYCQQFHDYPWTFGGGTKLEIK heavy 2: EVRLLESGGGLVQPGGSLRLSCAASGFTFSNYAMGWVRQAPGKGLEWVSAISGSGGSTYYADSVKGRFTTSRDDSKNALYLQMNSLRAEDTAVYYCARGGPGWYAADVWGQGTTVTVSS[here human IgG1 constant region with changes without letters] light: DIQMTQSPSSLSASVGDRVTITCRASQSISSYLNWYQQKPGKAPKLLIYAASSLQSGVPSRFSGSGSGTDFTLTISSLQPEDFATYYCQQADLPAFAFGGGTKVEIKRTVAAPSVFIFPPSDEQLKSGTASVVCLLNNFYPREAKVQWKVDNALQSGNSQESVTEQDSKDSTYSLSSTLTLSKADYEKHKVYACEVTHQGLSSPVTKSFNRGEC | 272 | 24
CD98hc.05.081 (2+1 bispecific antibody) (bispecific antibody) heavy 1: EVRLLESGGGLVQPGGSLRLSCAASGFTFSNYAMGWVRQAPGKGLEWVSAISGSGGSTYYADSVKGRFTTSRDDSKNALYLQMNSLRAEDTAVYYCARGGPGWYAADVWGQGTTVTVSSASTKGPSVFPLAPSSKSTSGGTAALGCLVKDYFPEPVTVSWNSGALTSGVHTFPAVLQSSGLYSLSSVVTVPSSSLGTQTYICNVNHKPSNTKVDKKV[here human IgG1 Fc with changes without letters]GGGGSGGGGSGGGGSEVQLQQSRPELVKPGASVKMSCKASGYTFTSYVMHWVKQKPGQGLEWIGYISPYNGDTKYNEKFKGKATLTSDISSTTAYMELSSLTSEDSGVYYCARPGSSPSWFAYWGQGTLVTVSSGGSEGKSSGSGSESKSTGGSDIVMTQFPATLSVTPGDRVSLSCRASQSISNYLHWYQQKSHESPRLLIKYASQSISGIPSRFSGSGSGSDFTLSINSVEPEDVGVYYCQNGHSFPYMYTFGGGTKLEIK heavy 2: EVRLLESGGGLVQPGGSLRLSCAASGFTFSNYAMGWVRQAPGKGLEWVSAISGSGGSTYYADSVKGRFTTSRDDSKNALYLQMNSLRAEDTAVYYCARGGPGWYAADVWGQGTTVTVSS[here human IgG1 constant region with changes without letters] light: DIQMTQSPSSLSASVGDRVTITCRASQSISSYLNWYQQKPGKAPKLLIYAASSLQSGVPSRFSGSGSGTDFTLTISSLQPEDFATYYCQQADLPAFAFGGGTKVEIKRTVAAPSVFIFPPSDEQLKSGTASVVCLLNNFYPREAKVQWKVDNALQSGNSQESVTEQDSKDSTYSLSSTLTLSKADYEKHKVYACEVTHQGLSSPVTKSFNRGEC | 136 | 8
CD98hc.05.144 (2+1 bispecific antibody) (bispecific antibody) heavy 1: EVRLLESGGGLVQPGGSLRLSCAASGFTFSNYAMGWVRQAPGKGLEWVSAISGSGGSTYYADSVKGRFTTSRDDSKNALYLQMNSLRAEDTAVYYCARGGPGWYAADVWGQGTTVTVSSASTKGPSVFPLAPSSKSTSGGTAALGCLVKDYFPEPVTVSWNSGALTSGVHTFPAVLQSSGLYSLSSVVTVPSSSLGTQTYICNVNHKPSNTKVDKKV[here human IgG1 Fc with changes without letters]GGGGSGGGGSGGGGSEVQLVESGGALVKPGGSLKLSCAASGFAFSSFDMSWVRQTPERRVEWVAYISGGGGSTYHPDTVKGRFAISRDNAKNTLYLHMNSLKSEDTAMYYCVRQGSRPWFAYWGQGTLVTVSSGGSEGKSSGSGSESKSTGGSDFVMSQSPSSLTVSVGEKVTMTCKSSQSLLYSYTQKNYLAWYQQKPGQSPNLLIYWASTRESGVPDRFAGSGSGTDFTLTISSVEAEDLAVYYCQQYSNYPPTFGGGTKLEIK heavy 2: EVRLLESGGGLVQPGGSLRLSCAASGFTFSNYAMGWVRQAPGKGLEWVSAISGSGGSTYYADSVKGRFTTSRDDSKNALYLQMNSLRAEDTAVYYCARGGPGWYAADVWGQGTTVTVSS[here human IgG1 constant region with changes without letters] light: DIQMTQSPSSLSASVGDRVTITCRASQSISSYLNWYQQKPGKAPKLLIYAASSLQSGVPSRFSGSGSGTDFTLTISSLQPEDFATYYCQQADLPAFAFGGGTKVEIKRTVAAPSVFIFPPSDEQLKSGTASVVCLLNNFYPREAKVQWKVDNALQSGNSQESVTEQDSKDSTYSLSSTLTLSKADYEKHKVYACEVTHQGLSSPVTKSFNRGEC | 405 | 32
CD98hc.05.166 (2+1 bispecific antibody) (bispecific antibody) heavy 1: EVRLLESGGGLVQPGGSLRLSCAASGFTFSNYAMGWVRQAPGKGLEWVSAISGSGGSTYYADSVKGRFTTSRDDSKNALYLQMNSLRAEDTAVYYCARGGPGWYAADVWGQGTTVTVSSASTKGPSVFPLAPSSKSTSGGTAALGCLVKDYFPEPVTVSWNSGALTSGVHTFPAVLQSSGLYSLSSVVTVPSSSLGTQTYICNVNHKPSNTKVDKKV[here human IgG1 Fc with changes without letters]GGGGSGGGGSGGGGSEVQLLQSGAELVKPGASVKLSCTASGFNILDTYIHWVMQRPEQGLEWIGRIDPANGHVKYDPKFQGKATITADTSSNTAYLQLSSLTSEDTAVYYCASPFTTVVATNIYYYGLGYWGHGTSVTVSSGGSEGKSSGSGSESKSTGGSDIVMTQSHKFMSTSLGDRVSITCKASQGVFTAVAWYQQKPGQSPKLLIYSASYRYTGVPDRFTGSGSGTDFTFTISSVQAEDLAVYYCQQHYSTPWTFGGGTKLEIK heavy 2: EVRLLESGGGLVQPGGSLRLSCAASGFTFSNYAMGWVRQAPGKGLEWVSAISGSGGSTYYADSVKGRFTTSRDDSKNALYLQMNSLRAEDTAVYYCARGGPGWYAADVWGQGTTVTVSS[here human IgG1 constant region with changes without letters] light: DIQMTQSPSSLSASVGDRVTITCRASQSISSYLNWYQQKPGKAPKLLIYAASSLQSGVPSRFSGSGSGTDFTLTISSLQPEDFATYYCQQADLPAFAFGGGTKVEIKRTVAAPSVFIFPPSDEQLKSGTASVVCLLNNFYPREAKVQWKVDNALQSGNSQESVTEQDSKDSTYSLSSTLTLSKADYEKHKVYACEVTHQGLSSPVTKSFNRGEC | 60 | 9
CD98hc.05.168 (2+1 bispecific antibody) (bispecific antibody) heavy 1: EVRLLESGGGLVQPGGSLRLSCAASGFTFSNYAMGWVRQAPGKGLEWVSAISGSGGSTYYADSVKGRFTTSRDDSKNALYLQMNSLRAEDTAVYYCARGGPGWYAADVWGQGTTVTVSSASTKGPSVFPLAPSSKSTSGGTAALGCLVKDYFPEPVTVSWNSGALTSGVHTFPAVLQSSGLYSLSSVVTVPSSSLGTQTYICNVNHKPSNTKVDKKV[here human IgG1 Fc with changes without letters]GGGGSGGGGSGGGGSEVQLVESGGGLVKPGGSLKLSCAASGFAFSTYDMSWVRQTPEKRLEWVAYISSGGDTTYYPDTVKGRFTISRDNAKNTLYLQMSSLKSEDSAIYYCARQDYRPYFAYWGQGTLVTVSSGGSEGKSSGSGSESKSTGGSDIVMSQSPSSLAVSVGEKVTVSCKSSQNLLYSSNQKNYLAWYQQKPGQSPKLLIYWASTRESGVPDRFTGSGSGTDFTLTISSVKAEDLAVYYCQQYSYYPPTFGGGTKLEIK heavy 2: EVRLLESGGGLVQPGGSLRLSCAASGFTFSNYAMGWVRQAPGKGLEWVSAISGSGGSTYYADSVKGRFTTSRDDSKNALYLQMNSLRAEDTAVYYCARGGPGWYAADVWGQGTTVTVSS[here human IgG1 constant region with changes without letters] light: DIQMTQSPSSLSASVGDRVTITCRASQSISSYLNWYQQKPGKAPKLLIYAASSLQSGVPSRFSGSGSGTDFTLTISSLQPEDFATYYCQQADLPAFAFGGGTKVEIKRTVAAPSVFIFPPSDEQLKSGTASVVCLLNNFYPREAKVQWKVDNALQSGNSQESVTEQDSKDSTYSLSSTLTLSKADYEKHKVYACEVTHQGLSSPVTKSFNRGEC | 204 | 18

Reference: US20250270341A1 (Alector, published 2025)
